Measured values taken from the supplement of paper PMC12217912.
Some of the results follow. The full chains were built here from the parent and the listed change. Inactive controls read about 0.05.

B1: TEV protease; numbered along this chain (parent)
chain: MGESLFKGPRDYNPISSSICHLTNESDGHTTSLYGIGFGPFIITNKHLFRRNNGTLVVQSLHGVFKVKDTTTLQQHLVDGRDMIIIRMPKDFPPFPQKLKFREPQREERICLVTTNFQTKSMSSMVSDTSCTFPSGDGIFWKHWIQTKDGQCGSPLVSTRDGFIVGIHSASNFTNTNNYFTSVPKNFMELLTNQEAQQWVSGWRLNADSVLWGGHKVFMVKPEEPFQPVKEATQL

Variants of: B1
Assay: raw area under fraction-flipped curve 0-4 h after induction (AUC4h, not background-subtracted), DNA-recorder readout of cleavage of the substrate (dimensionless); higher = more cleavage of the substrate by the protease variant
Conditions: temperature: 34 °C; time window: 0-4 h after rhamnose induction
Description: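 In vivo DNA recorder in E. coli TOP10(DE3) ΔrhaA at 34 °C. Each TEVp single-site mutant (parent TEVp 0) is paired with a single-site variant of the 7-mer TEVs (canonical ENLYFQ|S). The substrate sits between flexible linkers in a Bxb1-sfGFP-TEVs-SsrA fusion, so cleavage stabilises Bxb1 and speeds flipping of a recombination array, read by NGS. The value is the raw area under the fraction-flipped curve over 0-4 h after rhamnose induction (AUC4h), with ≥20 reads per time point. It is not background-subtracted; inactive controls average about 0.047.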
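Further: Bxb1 expression induced with 0.2% (w/v) L-rhamnose at OD600 near 0.5, cultures sampled hourly, flipped fraction per protease–substrate barcode pair counted by paired-end Illumina sequencing.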

Row | Variant | area with substrate CNLYFQS | area with substrate FNLYFQS | area with substrate HNLYFQS | area with substrate KNLYFQS | area with substrate LNLYFQS | area with substrate MNLYFQS | area with substrate NNLYFQS | area with substrate PNLYFQS | area with substrate QNLYFQS | area with substrate TNLYFQS | area with substrate VNLYFQS | area with substrate WNLYFQS | area with substrate GNLYFQS | area with substrate INLYFQS | area with substrate SNLYFQS | area with substrate YNLYFQS | area with substrate RNLYFQS
1 | S135C | 0.0689 | 0.0634 | 0.0506 | 0.0644 | 0.0539 | 0.0459 | 0.0613 | 0.0522 | 0.0564 | 0.0579 | 0.0685 | 0.0764 |  |  |  |  | 
2 | S135W | 0.0537 |  | 0.0492 |  | 0.0638 | 0.056 |  | 0.056 |  | 0.0648 |  | 0.0602 | 0.0557 | 0.0526 | 0.0651 | 0.0517 | 
3 | V157Q | 0.0359 |  | 0.0617 | 0.0463 | 0.0595 | 0.0536 |  |  |  | 0.0635 |  | 0.062 | 0.0731 |  | 0.062 | 0.065 | 
4 | V157P | 0.0445 | 0.0366 | 0.0433 |  | 0.0494 | 0.0502 | 0.0359 | 0.0372 |  | 0.0541 | 0.0547 | 0.053 |  |  | 0.0484 | 0.0478 | 
5 | Q151D | 0.0641 | 0.0705 | 0.0808 | 0.0736 | 0.0773 | 0.0703 | 0.0635 | 0.0696 |  | 0.066 |  | 0.0664 |  | 0.0699 | 0.0896 |  | 0.0532
6 | Q146A | 0.0636 |  | 0.0729 |  | 0.0644 |  | 0.0748 | 0.0733 |  |  |  | 0.0601 | 0.0891 |  | 0.0733 | 0.0571 | 0.068
7 | Q146H | 0.0543 |  |  | 0.0872 | 0.0711 |  |  | 0.0756 |  | 0.0895 | 0.0696 | 0.0606 |  | 0.0541 |  | 0.0449 | 
8 | Q146F | 0.0676 |  |  |  |  |  |  | 0.0542 |  | 0.0697 |  | 0.0577 | 0.0656 |  |  |  | 
9 | Q146W | 0.0696 |  | 0.0531 |  | 0.0814 | 0.113 |  |  |  | 0.114 |  | 0.0627 |  | 0.0556 |  | 0.0317 | 
10 | Q146S | 0.0608 | 0.0684 | 0.0743 |  | 0.0448 |  |  |  | 0.0856 | 0.0541 |  |  |  | 0.0614 |  | 0.0619 | 
11 | F140T | 0.0735 |  | 0.0605 | 0.0548 |  | 0.0634 |  | 0.0245 |  | 0.0513 |  | 0.0518 |  |  | 0.0391 |  | 
12 | F140N | 0.0608 | 0.0966 | 0.0503 |  |  |  |  | 0.0547 |  | 0.0571 | 0.058 | 0.0525 |  | 0.0534 | 0.0588 |  | 
13 | F140Q | 0.0596 |  | 0.0275 |  |  |  |  |  |  |  |  |  |  | 0.0403 |  |  | 0.0343
14 | F140Y | 0.0824 |  | 0.0443 | 0.0699 | 0.068 | 0.0698 |  | 0.067 |  | 0.067 |  | 0.0525 |  | 0.0614 | 0.064 |  | 
15 | K120S | 0.0647 |  | 0.0555 | 0.0672 | 0.0622 |  | 0.0788 | 0.0701 |  | 0.0585 |  | 0.0622 | 0.0588 |  | 0.0565 |  | 
16 | T129G | 0.0675 |  |  |  |  |  |  | 0.0693 |  |  |  |  |  |  |  |  | 
17 | T129N | 0.0481 |  | 0.0604 |  | 0.0637 | 0.0773 | 0.0588 |  |  | 0.0671 | 0.0773 | 0.0592 | 0.0659 | 0.0659 |  | 0.0579 | 
18 | I139R | 0.0637 |  |  | 0.0548 | 0.0647 | 0.0548 |  | 0.0588 |  | 0.09 | 0.0571 | 0.0561 |  | 0.0385 | 0.0431 | 0.0582 | 

Row | Variant | area with substrate CNLYFQS | area with substrate FNLYFQS | area with substrate HNLYFQS | area with substrate KNLYFQS | area with substrate LNLYFQS | area with substrate MNLYFQS | area with substrate NNLYFQS | area with substrate PNLYFQS | area with substrate QNLYFQS | area with substrate TNLYFQS | area with substrate VNLYFQS | area with substrate WNLYFQS | area with substrate GNLYFQS | area with substrate INLYFQS | area with substrate SNLYFQS | area with substrate YNLYFQS | area with substrate RNLYFQS
19 | I139C | 0.0697 | 0.0656 | 0.0523 |  | 0.0865 |  |  |  |  |  |  | 0.0616 | 0.105 | 0.0792 | 0.0696 | 0.0521 | 
20 | S158F | 0.0495 |  | 0.0404 |  | 0.0568 |  |  | 0.0302 |  |  |  | 0.0513 |  | 0.0463 | 0.0507 | 0.0426 | 
21 | S158P | 0.0459 |  | 0.0504 | 0.0442 |  |  | 0.0561 | 0.051 |  | 0.0592 |  | 0.0461 | 0.0442 | 0.0543 | 0.0524 |  | 0.0487
22 | D149L | 0.0652 | 0.0457 | 0.0244 |  | 0.068 |  | 0.069 | 0.0614 |  | 0.0605 | 0.0586 | 0.0549 | 0.0377 |  | 0.0751 | 0.0482 | 
23 | C152N | 0.0564 | 0.0624 | 0.0555 |  | 0.0553 | 0.0472 | 0.0562 | 0.0109 |  | 0.0682 |  | 0.0599 |  |  | 0.0564 | 0.0622 | 
24 | S123C | 0.0715 | 0.0609 | 0.0588 |  | 0.0599 | 0.0596 | 0.0632 | 0.0574 |  | 0.064 | 0.0611 | 0.0649 |  |  |  | 0.0713 | 
25 | S123R | 0.0825 |  | 0.0723 |  | 0.0633 | 0.0603 |  |  |  | 0.0591 |  | 0.0577 |  |  |  | 0.0607 | 
26 | S123Y | 0.0517 | 0.0687 | 0.0694 |  |  |  | 0.0651 |  | 0.0844 | 0.0669 | 0.0647 | 0.0685 | 0.0836 |  | 0.0584 |  | 
27 | P134N | 0.0399 | 0.0692 | 0.0568 |  | 0.0514 | 0.0615 |  |  |  | 0.0544 |  | 0.056 |  |  | 0.057 | 0.0598 | 
28 | P134V | 0.0469 | 0.0682 | 0.0613 | 0.0649 |  | 0.061 | 0.0586 | 0.0655 |  | 0.0724 | 0.0503 | 0.0571 | 0.0592 | 0.0383 | 0.0644 | 0.0693 | 0.0574
29 | M122R | 0.0685 |  | 0.0683 | 0.0702 | 0.0616 | 0.0686 |  |  |  | 0.0728 | 0.0733 | 0.0603 |  | 0.0369 | 0.0663 | 0.0622 | 
30 | G138S | 0.0472 | 0.0542 | 0.0614 |  |  |  | 0.0583 |  |  | 0.117 |  |  | 0.0535 |  |  |  | 0.053
31 | G138K | 0.0657 |  | 0.0468 | 0.0577 | 0.0792 | 0.063 | 0.067 | 0.0632 | 0.032 | 0.0859 |  | 0.0474 | 0.0605 | 0.0758 | 0.0711 | 0.0532 | 
32 | G150D | 0.0602 | 0.0485 | 0.0527 |  |  |  |  | 0.0625 |  | 0.055 |  |  | 0.0914 |  |  | 0.0514 | 
33 | G150I | 0.0583 | 0.0831 | 0.0719 | 0.0688 |  | 0.0563 |  | 0.0543 | 0.0283 | 0.0584 | 0.0681 | 0.0486 |  | 0.0506 | 0.0608 | 0.0612 | 
34 | I145M | 0.0449 | 0.0747 | 0.0528 | 0.0552 | 0.0545 | 0.0604 | 0.0486 | 0.0691 | 0.0513 |  |  | 0.0558 | 0.0634 |  |  |  | 
35 | I145L | 0.0648 |  |  | 0.0634 |  |  |  | 0.0538 | 0.0554 | 0.0608 |  | 0.0789 |  |  |  |  | 
